Data taken from article PMC4336329 (PLoS ONE, 2015).
Among all 310,000 compounds or so, about 2,200 (0.71%) showed an effect of 50% or more. Effects have a minus sign here. This is one part of the list.

Each molecule was assayed against human ether-à-go-go-related gene (hERG) potassium channel (human, UniProt Q12809) (assay: primary screen, population patch clamp on CHO cells stably expressing hERG).
Sequence of human ether-à-go-go-related gene (hERG) potassium channel (Q12809 whole entry, looked up): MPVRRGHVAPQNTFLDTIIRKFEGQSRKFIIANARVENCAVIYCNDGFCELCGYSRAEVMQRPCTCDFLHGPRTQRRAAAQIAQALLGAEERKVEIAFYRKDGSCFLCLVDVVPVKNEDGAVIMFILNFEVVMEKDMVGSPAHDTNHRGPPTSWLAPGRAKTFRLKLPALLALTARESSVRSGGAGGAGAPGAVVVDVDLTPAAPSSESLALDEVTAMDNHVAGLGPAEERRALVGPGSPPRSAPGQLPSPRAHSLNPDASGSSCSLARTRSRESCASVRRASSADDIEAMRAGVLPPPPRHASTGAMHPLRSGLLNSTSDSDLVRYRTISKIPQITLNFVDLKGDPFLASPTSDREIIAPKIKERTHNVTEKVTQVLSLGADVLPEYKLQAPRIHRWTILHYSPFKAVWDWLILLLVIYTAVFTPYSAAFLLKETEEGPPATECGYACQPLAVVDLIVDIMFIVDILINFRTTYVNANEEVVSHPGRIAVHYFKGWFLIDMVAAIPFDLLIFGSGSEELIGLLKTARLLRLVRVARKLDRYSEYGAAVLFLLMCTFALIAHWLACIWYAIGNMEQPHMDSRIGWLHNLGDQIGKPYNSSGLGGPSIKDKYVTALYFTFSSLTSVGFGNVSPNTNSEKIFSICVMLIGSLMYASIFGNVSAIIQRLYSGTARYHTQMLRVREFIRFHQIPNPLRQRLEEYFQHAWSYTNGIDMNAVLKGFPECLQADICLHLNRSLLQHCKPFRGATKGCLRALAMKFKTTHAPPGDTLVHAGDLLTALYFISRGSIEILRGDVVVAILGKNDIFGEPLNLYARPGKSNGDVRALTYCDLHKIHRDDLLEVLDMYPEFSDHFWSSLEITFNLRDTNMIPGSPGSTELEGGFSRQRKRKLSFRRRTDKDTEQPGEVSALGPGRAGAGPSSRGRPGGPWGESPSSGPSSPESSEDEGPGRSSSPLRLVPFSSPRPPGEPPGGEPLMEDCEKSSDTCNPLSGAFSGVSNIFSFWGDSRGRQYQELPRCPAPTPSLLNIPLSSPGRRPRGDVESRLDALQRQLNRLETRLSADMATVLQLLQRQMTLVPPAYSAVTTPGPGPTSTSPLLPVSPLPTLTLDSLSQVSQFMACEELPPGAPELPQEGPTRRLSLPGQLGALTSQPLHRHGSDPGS

**Q.** With O=C(NCCCN1CCOCC1)c1ccc(CS(=O)(=O)c2c(Cl)cccc2Cl)o1 as the molecule, how does the “hERG current change (%, negative = inhibition) at 1uM” value read?
**A.** 4.69%

**Q.** How did the “hERG current change (%, negative = inhibition) at 1uM” value turn out when CCN(C(=O)c1ccc(Br)o1)C1CCS(=O)(=O)C1 (centres unmarked) was run?
**A.** 5.63%

**Q.** For c1ccc2nc(-c3ccncc3)ccc2c1, which “hERG current change (%, negative = inhibition) at 1uM” value is on record?
**A.** 14.8%

**Q.** CC[C@@H](C)[C@H](NC(=O)Cc1c(C)c2cc3c(C)coc3c(C)c2oc1=O)C(=O)O was tested. Which “hERG current change (%, negative = inhibition) at 1uM” value did it give?
**A.** -0.576%

**Q.** With Nc1ccc[n+](Cc2ccccn2)c1.[Br-] as the molecule, how does the “hERG current change (%, negative = inhibition) at 1uM” value read?
**A.** 17%

**Q.** With CCCN1Cc2cccc(C(=O)N3CCN(c4ccccc4)CC3)c2C1=O as the molecule, how does the “hERG current change (%, negative = inhibition) at 1uM” value read?
**A.** 10.9%

**Q.** With O=c1c2ccccc2c(C=NCCCN2CCOCC2)c(O)n1Cc1ccc2c(c1)OCO2 as the molecule, how does the “hERG current change (%, negative = inhibition) at 1uM” value read?
**A.** -1.96%

**Q.** CCOC(=O)c1ccc(Nc2cc(C)nc(C)c2C(=O)OCC)cc1.Cl was tested. Which “hERG current change (%, negative = inhibition) at 1uM” value did it give?
**A.** -34.6%

**Q.** How did the “hERG current change (%, negative = inhibition) at 1uM” value turn out when Cc1cc(C)nc(N2CCCC(C(=O)Nc3ccc4c(c3)OCCO4)C2)n1 (centres unmarked) was run?
**A.** 14.7%

**Q.** How did the “hERG current change (%, negative = inhibition) at 1uM” value turn out when C=Cc1cccc(NC(=O)c2ccc(NC(=O)c3ccco3)cc2)c1 was run?
**A.** 5.9%

**Q.** Which “hERG current change (%, negative = inhibition) at 1uM” value does the source give for CCOC(=O)C1(Cc2ccccc2)CCCN(C(=O)c2cn[nH]c2)C1 (centres unmarked) here?
**A.** 16.1%

**Q.** Cn1cc(/C=C2/SC(=O)N(c3ccccc3)C2=O)c2ccccc21 was tested. Which “hERG current change (%, negative = inhibition) at 1uM” value did it give?
**A.** 8.81%

**Q.** COCC(=O)N(CCN(C)C)Cc1cc2cc3c(cc2nc1Cl)OCO3.Cl was tested. Which “hERG current change (%, negative = inhibition) at 1uM” value did it give?
**A.** 14%

**Q.** CC(=O)c1ccc(NS(=O)(=O)c2ccc3c(c2)N(C)CCO3)cc1 was tested. Which “hERG current change (%, negative = inhibition) at 1uM” value did it give?
**A.** 1.5%

**Q.** For CCOc1ccc2nc(Cl)c(C3CC(c4ccco4)=NN3S(=O)(=O)c3ccccc3)cc2c1 (centres unmarked), which “hERG current change (%, negative = inhibition) at 1uM” value is on record?
**A.** 3.86%

**Q.** COc1ccc(-n2ncc3c2CC(C)(C)CC3NC(=O)CCn2nc(C)cc2C)cc1 (centres unmarked) was tested. Which “hERG current change (%, negative = inhibition) at 1uM” value did it give?
**A.** -3.22%

**Q.** For COC(=O)Cc1c(C)c2ccc(OCC(=O)NC3CCS(=O)(=O)C3)cc2oc1=O (centres unmarked), which “hERG current change (%, negative = inhibition) at 1uM” value is on record?
**A.** 23.7%

**Q.** How did the “hERG current change (%, negative = inhibition) at 1uM” value turn out when O=C(COC(=O)c1cc(Cl)nc2ccccc12)c1ccc(Cl)cc1 was run?
**A.** 15.7%

**Q.** For Br.O=C(Cn1c(NCCCO)nc2ccccc21)c1ccco1, which “hERG current change (%, negative = inhibition) at 1uM” value is on record?
**A.** 12.3%

**Q.** For Cc1ccc(NS(=O)(=O)c2ccc3c(c2)n(C)c(=O)n3C)c(C)c1, which “hERG current change (%, negative = inhibition) at 1uM” value is on record?
**A.** 5.84%

**Q.** How did the “hERG current change (%, negative = inhibition) at 1uM” value turn out when COc1ccc(N=C2SC(C(=O)O)CC(=O)N2Cc2ccc(OC)c(OC)c2)cc1 (centres unmarked) was run?
**A.** 10.8%

**Q.** How did the “hERG current change (%, negative = inhibition) at 1uM” value turn out when Cc1cc(S(=O)(=O)N2CCCOC2CNC(=O)C(=O)NCCc2ccco2)ccc1F (centres unmarked) was run?
**A.** 17.8%

**Q.** Which “hERG current change (%, negative = inhibition) at 1uM” value does the source give for COc1ccc(C2=NN(c3ccc(C(=O)O)cc3)C(c3ccc(OC)c(OC)c3)C2)cc1 (centres unmarked) here?
**A.** 2.87%

**Q.** CCC(NC(=O)NCc1ccccc1)(C(F)(F)F)C(F)(F)F was tested. Which “hERG current change (%, negative = inhibition) at 1uM” value did it give?
**A.** 6.8%

**Q.** How did the “hERG current change (%, negative = inhibition) at 1uM” value turn out when O=C(CN(CC1CCCO1)C(=O)CCC(=O)Nc1nccs1)NCC1CCCO1 (centres unmarked) was run?
**A.** 5.17%

**Q.** For CCCCNC(=O)Cn1nc(-c2ccc(C)cc2)ccc1=O, which “hERG current change (%, negative = inhibition) at 1uM” value is on record?
**A.** 13.2%

**Q.** With CCC(C)C(NS(=O)(=O)c1ccc(C)cc1)C(=O)NCCCN1CCOCC1 (centres unmarked) as the molecule, how does the “hERG current change (%, negative = inhibition) at 1uM” value read?
**A.** 28.3%

**Q.** C=CCSc1nnc(-c2nnc(SCC=C)n2-c2ccccc2)n1-c1ccccc1 was tested. Which “hERG current change (%, negative = inhibition) at 1uM” value did it give?
**A.** 1.06%

**Q.** How did the “hERG current change (%, negative = inhibition) at 1uM” value turn out when Cn1cc(CN2CCC(O)CC2)c(-c2ccc(Oc3ccccc3)cc2)n1 was run?
**A.** 1.32%

**Q.** How did the “hERG current change (%, negative = inhibition) at 1uM” value turn out when O=[N+]([O-])c1cccc(C=Nc2cccc3ccccc23)c1O was run?
**A.** 15.8%

**Q.** How did the “hERG current change (%, negative = inhibition) at 1uM” value turn out when CC(=O)Nc1nnc(SCC(=O)N2CCCc3ccccc32)s1 was run?
**A.** 7.15%

**Q.** O=C(NNC(=S)Nc1ccccc1)c1cc(Br)ccc1Cl was tested. Which “hERG current change (%, negative = inhibition) at 1uM” value did it give?
**A.** 13.6%

**Q.** For CCc1cc2c(Nc3ccc(O)cc3)nc(C)nc2s1.Cl, which “hERG current change (%, negative = inhibition) at 1uM” value is on record?
**A.** 15.9%

**Q.** How did the “hERG current change (%, negative = inhibition) at 1uM” value turn out when COc1ccc(C(=O)N2CCN(Cc3ccccc3)CC2)cc1[N+](=O)[O-] was run?
**A.** -22.3%

**Q.** For COc1ccc(NC(=O)CN2CCCN(S(=O)(=O)c3ccc(F)cc3)CC2)cc1, which “hERG current change (%, negative = inhibition) at 1uM” value is on record?
**A.** -25.9%

**Q.** How did the “hERG current change (%, negative = inhibition) at 1uM” value turn out when CC(=O)NCCc1nc2cc(NC(=O)c3ccc(Cl)cc3)ccc2n1C was run?
**A.** 13.2%

**Q.** How did the “hERG current change (%, negative = inhibition) at 1uM” value turn out when O=C(NCc1cccs1)C(=O)NCC(c1ccco1)N1CCN(c2ccccc2F)CC1 (centres unmarked) was run?
**A.** 2.9%

**Q.** With CN(C)CCCNC(=O)c1cc(C(=O)c2ccc(F)cc2)c[nH]1 as the molecule, how does the “hERG current change (%, negative = inhibition) at 1uM” value read?
**A.** -3.7%

**Q.** Which “hERG current change (%, negative = inhibition) at 1uM” value does the source give for Br.c1ccc(-c2csc(Nc3ccc4c(c3)OCCO4)n2)cc1 here?
**A.** 7.58%

**Q.** COc1cc(NC(=S)NN2CCN(C)CC2)cc(OC)c1OC was tested. Which “hERG current change (%, negative = inhibition) at 1uM” value did it give?
**A.** -0.636%

**Q.** Cn1cc(CN2CCc3sccc3C2)c(-c2ccccc2F)n1 was tested. Which “hERG current change (%, negative = inhibition) at 1uM” value did it give?
**A.** 7.89%

**Q.** How did the “hERG current change (%, negative = inhibition) at 1uM” value turn out when COc1ccccc1C(=O)NC1CC(C)(C)NC(C)(C)C1 was run?
**A.** 17.9%

**Q.** For COc1cc(NC(=O)CN2CCCCC2C)c(C)cc1[N+](=O)[O-] (centres unmarked), which “hERG current change (%, negative = inhibition) at 1uM” value is on record?
**A.** 9.13%

**Q.** COc1ccc(N(C(=O)C2CCCCC2)S(=O)(=O)c2cccc3cccnc23)cc1 was tested. Which “hERG current change (%, negative = inhibition) at 1uM” value did it give?
**A.** 7.12%
